In the supplement of paper PMC3334620:
The full ranking holds about 33,000 sequences; the median of “E-score (-0.5 to 0.5)” is about -0.041, and the highest 2% start at about 0.37. This is one part of the list.

target: T1, Ecm22 (UniProt Q05958); assay: PBM E-score (8-mer binding enrichment) (E-score (-0.5 to 0.5)); higher = stronger / more preferred TF binding; most listed sequences are background and not binding sites; settings: protein concentration: 200 nM; construct: GST-full length
T1 sequence: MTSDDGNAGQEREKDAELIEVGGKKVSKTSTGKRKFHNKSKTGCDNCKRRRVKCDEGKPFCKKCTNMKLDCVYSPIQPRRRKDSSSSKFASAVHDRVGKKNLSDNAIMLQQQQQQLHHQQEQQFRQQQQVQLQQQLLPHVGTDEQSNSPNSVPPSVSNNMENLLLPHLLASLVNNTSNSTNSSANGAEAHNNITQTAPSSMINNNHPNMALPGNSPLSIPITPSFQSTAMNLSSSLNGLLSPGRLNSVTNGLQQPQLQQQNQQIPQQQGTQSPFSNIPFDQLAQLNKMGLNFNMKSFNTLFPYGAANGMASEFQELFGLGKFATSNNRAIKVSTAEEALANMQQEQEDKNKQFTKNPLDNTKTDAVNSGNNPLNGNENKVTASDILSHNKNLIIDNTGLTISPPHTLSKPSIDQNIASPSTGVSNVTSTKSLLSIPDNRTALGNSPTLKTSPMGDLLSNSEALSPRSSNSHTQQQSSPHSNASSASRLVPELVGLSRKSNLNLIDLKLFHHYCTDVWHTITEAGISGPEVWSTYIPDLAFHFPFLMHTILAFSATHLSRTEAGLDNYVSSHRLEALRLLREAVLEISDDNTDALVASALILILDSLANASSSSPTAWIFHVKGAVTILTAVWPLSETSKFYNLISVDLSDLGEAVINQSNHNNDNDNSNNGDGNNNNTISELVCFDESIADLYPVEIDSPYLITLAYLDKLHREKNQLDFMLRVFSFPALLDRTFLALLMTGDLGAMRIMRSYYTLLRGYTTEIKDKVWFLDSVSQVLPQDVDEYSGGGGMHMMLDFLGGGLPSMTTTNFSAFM
Outline: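 Using PURExpress in vitro transcription/translation, GST-tagged yeast transcription factors were made in full-length or DNA-binding-domain form. These were applied at about 100-200 nM to double-stranded universal all-10-mer Agilent arrays, and bound protein was detected with fluorescent anti-GST. Scans were normalised with masliner before the Universal PBM Analysis Suite assigned E-scores to ungapped eight-base words pooled with their reverse complements.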

Sequence	PBM E-score
CCCGACAA	0.156
TACCGGAA	0.0329
CTCGGTAC	0.295
CAGGCTCG	0.184
CTAACTAC	-0.216
GTCCCAAA	-0.0581
TCACGTGA	0.0673
GCGACTCA	0.0467
GAAAATTA	-0.0128
GGAACAAA	0.184
GTAGGACA	-0.069
CCGACGGA	0.0916
CATTTGAC	-0.322
ACGGCAAT	0.189
CTTGAGCA	-0.297
CGGAATCC	-0.0534
CTCGTGCA	0.0759
CGCGATAC	0.244
AATCCATA	0.0592
AGAATCAC	-0.125
CCACGTCG	0.0388
ACAACGGG	0.152
GCTTACTA	-0.087
ACTCACCG	-0.0985
CCAGGCTA	-0.199

Sequence	PBM E-score
CGACTAGA	0.0469
ACAAGAAA	-0.108
ACCAGGAC	-0.0501
AGGCGAGA	-0.144
AGAATGAG	-0.208
CGTAGGAC	0.042
GACACAAA	-0.0464
CCTTTCTA	-0.15
ACCCCAGG	-0.243
CTTAACGC	-0.0209
AGTCAGAT	-0.259
AACCAGCT	-0.0488
CTGGAACC	-0.0207
CGTTGACC	0.121
GAAGCATC	-0.125
CAGCTGGC	-0.163
CCAATGGA	-0.0624
ACGACGAC	0.364
GCTCGTCC	-0.109
GAACATCA	-0.048
CAGTGCGC	-0.23
ATGTGTAA	-0.124
AGGCTATG	-0.311
CGTGATTA	0.122
CCAGGCGC	-0.275

Sequence	PBM E-score
GAGTTAAC	0.00421
TTCCCAAA	-0.0335
CAACGCCA	-0.129
CATGCTGA	-0.125
CTTGACAC	-0.31
ATCCGGCC	0.0537
GCCCTATA	-0.00087
TAAAAAGA	-0.0977
ACGTGCGC	0.138
ATCATACG	0.404
AAGGAACG	0.458
ATACTGAA	-0.0116
AACACCTG	-0.0273
AGCCGCCG	-0.284
ATACGAGC	0.49
GTTCTGTA	0.0672
CATACTGG	-0.0994
ACTTCAGG	-0.235
AGAACATA	0.17
AATACTCA	0.0462
ACGACAGT	0.382
TACGCGCA	0.222
AGTCTGGC	-0.23
CGAACATC	0.28
GTCCCAGA	-0.0437

Sequence	PBM E-score
AGTGGAGA	-0.128
CTCACGAC	-0.0734
AAGGCTGG	-0.36
CCCAAAAG	-0.105
ATAGTGGC	-0.0188
ATAGGGGG	-0.317
AGCCTTAG	-0.206
AGGTGTGC	-0.187
ACATTATG	0.117
GATTGAAA	0.0283
CCTCAGAG	-0.243
CCCGTGCA	-0.0742
CGACGCTA	0.2
CTATATGC	-0.044
AGCCGAGG	0.125
AATTTGAA	0.139
CCGATAAG	-0.138
GATCTAGC	0.0954
CTAGTATC	0.0309
ACATGTTA	0.0744
CATAAGCA	-0.195
TAACACCA	0.0673
AACATACT	0.0945
GCTTATAA	-0.00159
ACCGCAGA	-0.232

Sequence	PBM E-score
TCTCGAGA	-0.0403
AGGTCTAT	0.0387
AGATCAAT	-0.086
ACTGGCCC	-0.0753
AATGTGGG	-0.217
CCAGGGGG	-0.264
CCGGGGTA	-0.134
GCGAACAA	0.148
GCGTCTCA	-0.114
AACAGGGC	-0.165
AAGAGACA	-0.0438
ACCGCCCA	-0.0354
CTCAAATC	-0.0263
CCACGGCC	-0.268
AACCAAAG	-0.0743
AGCATTCC	-0.0497
CAAACCTA	-0.0906
CAACATAG	-0.155
CTTTTTTA	-0.19
ACCTACTA	0.0006
TTACCGAA	0.238
ATAGGATC	-0.135
ATTATGCG	0.323
TGATATCA	-0.00319
CTATCACA	-0.0749

Sequence	PBM E-score
GCTTACCA	0.0496
ACTGTGAG	-0.105
GAGTAAAC	0.178
ATTACGTA	0.293
AGCTCGGG	0.0858
GTTAGAAC	0.19
AATCAGTA	-0.0193
GCGATGTA	0.0758
AATGCTTC	0.0923
AGTCTGTG	-0.124
GGACGTGA	-0.281
ACCTCTGC	-0.265
AGTACCAG	-0.14
CACTACAC	-0.0528
TAACCGGA	0.0721
CTTTGGCC	-0.0348
CGTTTGGA	0.366
CGGGCATA	0.0598
AAGCTGCG	-0.0563
TCAACCAA	-0.0924
AATGAGAC	-0.205
TGATGTAA	-0.0508
ACCTTGAT	-0.0399
GTGGTTCA	-0.0549
ATCCACCC	-0.122

Sequence	PBM E-score
TCAGTGAA	-0.0633
ACCTGGCG	-0.188
CCATGATC	-0.191
GGCCTAAC	0.121
CAACTGCC	-0.127
GCTAGGGA	-0.162
CCAAGACC	-0.208
CTTTTTCA	-0.183
AGATATAA	0.0987
ATCGTTCA	0.402
CTAAAGAC	-0.258
AACCTATT	-0.0935
AGGGAACG	0.465
ACTGATTG	-0.186
CCCTAAGA	-0.219
ACGTGAAG	0.0312
ATGAGCAC	-0.201
CCACGTAC	0.217
CAGCGAGA	0.0257
AGCTATAA	-0.0374
CGGGGAAG	0.05
GATCCAGC	0.0799
AAAGAAAC	0.0695
ATTCTGGC	-0.0142
AAAAATCC	-0.12

Sequence	PBM E-score
GCTCCGAA	0.11
AGTATTCC	-0.00408
CAGCACTA	-0.0815
TATTTGCA	0.00921
TGTCCACA	-0.289
CCCAGTTC	-0.0249
GGAGCCGA	-0.112
AAGTATTG	-0.0862
GTGTTTGA	0.166
ACACTGAT	-0.254
GAACGGAC	0.279
AAGCATTG	-0.0154
AAGGGTAC	0.121
AACAAGTG	-0.137
AGGAGATC	-0.0503
AGCCTTAA	-0.0857
GTGGAGCA	-0.158
AATCTTCA	-0.0276
CGACCCAC	0.0554
AGGAAGCC	-0.166
GAAGCTTC	-0.158
GGCATCCA	-0.2
CCGAGGTA	0.176
GAATTCAA	0.00313
GGTTAGCA	-0.263

Sequence	PBM E-score
AAAAATGC	-0.0643
AGATGCAC	-0.054
CAAAGTCA	-0.102
CTTGCCGC	-0.168
CTATTCGA	0.0817
GCGTTTCA	-0.0209
GGTGTCCA	-0.122
ACTGAAAG	-0.138
CCAGCGTA	0.188
CCCTTGGA	-0.0297
ATTACACC	0.118
CTACGCAC	-0.0139
CGTTACAC	0.132
AGCTATGC	-0.0776
CAATGGCA	-0.196
CTACTTAC	-0.027
CATCTGAC	-0.203
AACAATTA	0.113
GGTGGGAC	-0.144
GCCGAACC	-0.0959
AATTCTGT	-0.164
AACTATCC	0.0177
ATGGCGCA	0.0936
CGATCGAA	0.164
AATCCGCG	-0.0546

Sequence	PBM E-score
ACTATTTA	0.133
CACATAGC	-0.133
CCAGTACC	-0.108
GAGTAGTA	0.00049
CCTACCCG	0.0261
AGCCGGGG	-0.213
ATGTGGTC	0.0104
TAAGTGCA	0.0499
AATCATAA	-0.0666
CCGCTACC	0.135
ACCCAAAT	-0.0546
GATAGGGA	-0.176
AGACACTA	0.084
ATGTCCCA	-0.233
GGATGCTA	0.0216
ATTCCAAG	-0.153
TACCTGCA	0.0113
CACTCGGA	0.198
ACCCCGCT	0.0272
CCAGTTGA	-0.161
GAGAAAGC	0.0505
GATAGATC	0.146
AACCACGT	0.023
ACTCCTGA	-0.135
AGTACACG	0.238

Sequence	PBM E-score
GCTGATTA	0.105
AGAAACGG	0.272
GACGCGTA	0.238
GGTAACAA	0.0669
CATACTAC	-0.0426
AAGTTGTC	-0.0591
AGTCGCCG	0.176
CAGCTCGA	-0.127
AAAATTCT	-0.0308
GAAATCAC	0.00502
CTGTTCCC	-0.325
CGGGGATC	0.128
AACAATAT	0.124
ACAAACCC	-0.217
AGGGGAGC	-0.0911
CACCGGAG	-0.319
GGACGGCC	-0.0815
CTAATTAA	-0.145
CTTAATGC	0.151
AAACAATT	-0.261
AAACGGTG	0.376
TACGCCCA	0.0201
CATCCTTC	-0.132
CGGTATAG	0.0179
AACCACTT	0.0041

Sequence	PBM E-score
AGCTTCCC	-0.0444
TGCTACAA	-0.219
CATACAAC	-0.0403
CCCCTCAG	-0.157
AACCTGGA	-0.167
CTCCTACA	-0.279
CCGGATTC	0.0569
ATGCTCAC	-0.0464
CCTTCGCC	-0.186
ACATCTCC	-0.0349
ATTCGCGG	-0.00497
AAGTCTAA	-0.21
CAATTTAG	-0.119
TCTCATAA	-0.0348
TGTAGAAA	-0.108
CGGGTCGC	0.187
TAGGTAAA	-0.0335
ATTAGGGC	-0.297
AATATCCC	-0.145
CAAATGCG	0.0144
ATTGAACC	-0.206
AGCCGCAC	-0.0313
CATCGTTC	0.428
AACGTCAG	-0.231
AACGCTGT	-0.0173

Sequence	PBM E-score
TGAGGGCA	-0.129
GGGTCAAC	-0.0954
ACATCTAC	-0.0505
GGGTTCGA	0.0642
GCAGTTAA	-0.0391
ATTCCTTG	-0.0666
TCCTACCA	-0.288
GAAGGAAA	-0.0206
CCTGACGA	0.0146
CGCCCTTC	-0.089
CTAGCCTA	-0.358
TAGCGTAA	0.0983
AGGACGGG	-0.147
AGTATTGC	-0.0643
CTCTGCGC	-0.0111
GGTACAAC	0.0714
CTCATTGC	-0.173
GAATTTCA	-0.167
CCCTCTCG	0.0417
CCAGGCAC	-0.208
TTCGGAAA	0.157
CAACCAAC	-0.168
AGCCTCCA	-0.24
ATTAGATA	0.0888
GGTGTCAA	-0.18

Sequence	PBM E-score
GAACTTCA	-0.156
GAGATAGC	-0.103
AGTGCCGA	-0.019
CAGAGTTC	-0.117
CCCGCTAG	-0.13
GCTAAAAC	-0.0742
CGCCTCAC	-0.0695
AAAAACGT	-0.0235
AGGCTTAC	-0.0801
CGGCATAC	0.0899
CACACGAC	0.211
AAGTTGTG	-0.00808
ATTACACG	0.195
AACAAATA	0.114
AGGGTAAG	-0.108
AGATGAAT	-0.242
TAAACGCA	0.292
TCCCACGA	-0.043
CCGGACTA	-0.175
